# This is one part of the list.
# Legend:
# Test in all cases: glycan array binding signal (z-score within array); higher = stronger binding
# Settings in all cases: glycan notation: IUPAC condensed, linker removed
# [1] = biological target: Gal(a1-3)[Gal(a1-4)]Gal(b1-4)GlcNAc
# Outline: (§1)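 Glycan array data were curated from 3228 arrays in the Consortium for Functional Glycomics database and kept only where the protein sequence was available. Glycan names were converted to IUPAC-condensed notation, and columns mapping to the same glycan were averaged. The binding signal is a within-array Z-score, averaged across arrays of the same protein sequence at different concentrations or buffers and across linkers. Negative Z-scores can be read as non-binding.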
# [2] = biological target: Gal(a1-4)Gal(b1-3)GlcNAc(b1-2)Man(a1-3)[Gal(a1-4)Gal(b1-3)GlcNAc(b1-2)Man(a1-6)]Man(b1-4)GlcNAc(b1-4)GlcNAc
# Outline: as §1
# Gal(a1-4)Gal(b1-4)Glc = biological target: Gal(a1-4)Gal(b1-4)Glc
# Outline: as §1
# Gal(a1-4)Gal(b1-4)GlcNAc = biological target: Gal(a1-4)Gal(b1-4)GlcNAc
# Outline: as §1
# [3] = biological target: Gal(a1-4)Gal(b1-4)GlcNAc(b1-2)Man(a1-3)[Gal(a1-4)Gal(b1-4)GlcNAc(b1-2)Man(a1-6)]Man(b1-4)GlcNAc(b1-4)GlcNAc
# Outline: as §1
# [4] = biological target: Gal(a1-4)Gal(b1-4)GlcNAc(b1-3)Gal(b1-4)Glc
# Outline: as §1
# Gal(a1-4)GlcNAc = biological target: Gal(a1-4)GlcNAc
# Outline: as §1
# Gal(a1-6)Glc = biological target: Gal(a1-6)Glc
# Outline: as §1
# Gal(b1-2)Gal = biological target: Gal(b1-2)Gal
# Outline: as §1
# Gal(b1-3)Gal = biological target: Gal(b1-3)Gal
# Outline: as §1
# Gal(b1-3)Gal(b1-4)GlcNAc = biological target: Gal(b1-3)Gal(b1-4)GlcNAc
# Outline: as §1
# Gal(b1-3)GalNAc = biological target: Gal(b1-3)GalNAc
# Outline: as §1
# [5] = biological target: Gal(b1-3)GalNAc(a1-3)[Fuc(a1-2)]Gal(b1-4)Glc
# Outline: as §1
# [6] = biological target: Gal(b1-3)GalNAc(a1-3)[Fuc(a1-2)]Gal(b1-4)GlcNAc
# Outline: as §1
# Gal(b1-3)GalNAc(b1-3)Gal = biological target: Gal(b1-3)GalNAc(b1-3)Gal
# Outline: as §1
# [7] = biological target: Gal(b1-3)GalNAc(b1-3)Gal(a1-4)Gal(b1-4)Glc
# Outline: as §1
# [8] = biological target: Gal(b1-3)GalNAc(b1-4)Gal(b1-4)Glc
# Outline: as §1
# [9] = biological target: Gal(b1-3)GalNAc(b1-4)[Neu5Ac(a2-3)]Gal(b1-4)Glc
# Outline: as §1
# Gal(b1-3)GlcNAc = biological target: Gal(b1-3)GlcNAc
# Outline: as §1
# [10] = biological target: Gal(b1-3)GlcNAc(a1-3)Gal(b1-4)GlcNAc
# Outline: as §1
# [11] = biological target: Gal(b1-3)GlcNAc(a1-6)Gal(b1-4)GlcNAc
# Outline: as §1
# Gal(b1-3)GlcNAc(b1-2)Man = biological target: Gal(b1-3)GlcNAc(b1-2)Man
# Outline: as §1
# [12] = biological target: Gal(b1-3)GlcNAc(b1-2)Man(a1-3)[Gal(b1-3)GlcNAc(b1-2)Man(a1-6)]Man(b1-4)GlcNAc(b1-4)GlcNAc
# Outline: as §1
# [13] = biological target: Gal(b1-3)GlcNAc(b1-2)Man(a1-3)[Gal(b1-3)GlcNAc(b1-2)Man(a1-6)]Man(b1-4)GlcNAc(b1-4)[Fuc(a1-6)]GlcNAc
# Outline: as §1
# [14] = biological target: Gal(b1-3)GlcNAc(b1-2)Man(a1-3)[GlcNAc(b1-4)][Gal(b1-3)GlcNAc(b1-2)Man(a1-6)]Man(b1-4)GlcNAc(b1-4)GlcNAc
# Outline: as §1
# [15] = biological target: Gal(b1-3)GlcNAc(b1-2)[Gal(b1-3)GlcNAc(b1-6)]Man(a1-6)[Gal(b1-3)GlcNAc(b1-2)Man(a1-3)]Man(b1-4)GlcNAc(b1-4)GlcNAc
# Outline: as §1
# [16] = biological target: Gal(b1-3)GlcNAc(b1-3)Gal(b1-3)GlcNAc
# Outline: as §1
# [17] = biological target: Gal(b1-3)GlcNAc(b1-3)Gal(b1-4)Glc
# Outline: as §1
# [18] = biological target: Gal(b1-3)GlcNAc(b1-3)Gal(b1-4)GlcNAc
# Outline: as §1
# [19] = biological target: Gal(b1-3)GlcNAc(b1-3)Gal(b1-4)GlcNAc(b1-2)Man(a1-3)[Gal(b1-3)GlcNAc(b1-3)Gal(b1-4)GlcNAc(b1-2)Man(a1-6)]Man(b1-4)GlcNAc(b1-4)GlcNAc
# Outline: as §1
# [20] = biological target: Gal(b1-3)GlcNAc(b1-3)Gal(b1-4)GlcNAc(b1-2)[Gal(b1-3)GlcNAc(b1-3)Gal(b1-4)GlcNAc(b1-6)]Man(a1-6)[Gal(b1-3)GlcNAc(b1-3)Gal(b1-4)GlcNAc(b1-2)Man(a1-3)]Man(b1-4)GlcNAc(b1-4)[Fuc(a1-6)]GlcNAc
# Outline: as §1
# [21] = biological target: Gal(b1-3)GlcNAc(b1-3)Gal(b1-4)GlcNAc(b1-3)Gal(b1-4)GlcNAc(b1-2)[Gal(b1-3)GlcNAc(b1-3)Gal(b1-4)GlcNAc(b1-3)Gal(b1-4)GlcNAc(b1-6)]Man(a1-6)[Gal(b1-3)GlcNAc(b1-3)Gal(b1-4)GlcNAc(b1-3)Gal(b1-4)GlcNAc(b1-2)Man(a1-3)]Man(b1-4)GlcNAc(b1-4)[Fuc(a1-6)]GlcNAc
# Outline: as §1
# [22] = biological target: Gal(b1-3)GlcNAc(b1-3)Gal(b1-4)GlcNAc(b1-6)[Gal(b1-3)GlcNAc(b1-3)]Gal(b1-4)Glc
# Outline: as §1
# [23] = biological target: Gal(b1-3)GlcNAc(b1-3)Gal(b1-4)[Fuc(a1-3)]GlcNAc
# Outline: as §1
# [24] = biological target: Gal(b1-3)GlcNAc(b1-3)Gal(b1-4)[Fuc(a1-3)]GlcNAc(b1-6)[Gal(b1-3)GlcNAc(b1-3)]Gal(b1-4)Glc
# Outline: as §1
# [25] = biological target: Gal(b1-3)GlcNAc(b1-3)GalNAc
# Outline: as §1
# [26] = biological target: Gal(b1-3)GlcNAc(b1-6)Gal(b1-4)GlcNAc
# Outline: as §1
# [27] = biological target: Gal(b1-3)GlcNAc(b1-6)GalNAc
# Outline: as §1
binder,measurement,setting,value
Epa22 (Candida glabrata) (protein) MGSSHHHHHHSSGLVPRGSHMKRALSSQNPFGYPIGCSPQSTNVIPGLTMELYSYPIVSGTPPNCYDASYVDPEYPRTGYLKRKMIGKSTGVTGSLNYKFSVEKACMVKYGNLPAGYNYNEPLTVSNFTMLLYGYFKPQTSGIHTFFVNADDLLYINFGAGNAFDCCKREDSKFKLGEYVAYDIWHVDSSKNKVSLNLEKDVYYPIRMFFNNIGKDSSLDLSFSVNGAVEHITDFSGYLYSVPDQPDACPAPIGYDTTCK,glycan array binding signal (z-score),[1],1.12
same,glycan array binding signal (z-score),[2],0.087
same,glycan array binding signal (z-score),Gal(a1-4)Gal(b1-4)Glc,2.75
same,glycan array binding signal (z-score),Gal(a1-4)Gal(b1-4)GlcNAc,3.58
same,glycan array binding signal (z-score),[3],0.741
same,glycan array binding signal (z-score),[4],-0.077
same,glycan array binding signal (z-score),Gal(a1-4)GlcNAc,5.91
same,glycan array binding signal (z-score),Gal(a1-6)Glc,6.63
same,glycan array binding signal (z-score),Gal(b1-2)Gal,1.37
same,glycan array binding signal (z-score),Gal(b1-3)Gal,1.3
same,glycan array binding signal (z-score),Gal(b1-3)Gal(b1-4)GlcNAc,3.14
same,glycan array binding signal (z-score),Gal(b1-3)GalNAc,-0.142
same,glycan array binding signal (z-score),[5],-0.146
same,glycan array binding signal (z-score),[6],-0.36
same,glycan array binding signal (z-score),Gal(b1-3)GalNAc(b1-3)Gal,0.332
same,glycan array binding signal (z-score),[7],-0.356
same,glycan array binding signal (z-score),[8],0.34
same,glycan array binding signal (z-score),[9],-0.279
same,glycan array binding signal (z-score),Gal(b1-3)GlcNAc,1.27
same,glycan array binding signal (z-score),[10],-0.294
same,glycan array binding signal (z-score),[11],0.491
same,glycan array binding signal (z-score),Gal(b1-3)GlcNAc(b1-2)Man,2.09
same,glycan array binding signal (z-score),[12],-0.314
same,glycan array binding signal (z-score),[13],-0.384
same,glycan array binding signal (z-score),[14],-0.318
same,glycan array binding signal (z-score),[15],-0.285
same,glycan array binding signal (z-score),[16],-0.122
same,glycan array binding signal (z-score),[17],0.04
same,glycan array binding signal (z-score),[18],-0.148
same,glycan array binding signal (z-score),[19],-0.304
same,glycan array binding signal (z-score),[20],-0.3
same,glycan array binding signal (z-score),[21],-0.325
same,glycan array binding signal (z-score),[22],-0.145
same,glycan array binding signal (z-score),[23],-0.108
same,glycan array binding signal (z-score),[24],-0.129
same,glycan array binding signal (z-score),[25],2.18
same,glycan array binding signal (z-score),[26],1.41
same,glycan array binding signal (z-score),[27],0.411
